Reference: PubChem BioAssay AID488969 (Vanderbilt High Throughput Screening Facility, 2010)
In all, about 110,000 compounds were measured (“z-score”: median about -0.1, highest 2% from about 2 on). The list shows a part of the results. Activity calls are given as the source filed them.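 How the source made its calls: active means z-score in the third read window above 3 or below -3; inactive means the rest.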 Residues, ends and D or L forms follow the SMILES beside them. *: point of attachment. OBn = c1ccc(CO*)cc1

Target: Metabotropic glutamate receptor 8 (Rattus norvegicus) (UniProt P70579)
Chain of UniProt P70579 (P70579 whole entry, looked up): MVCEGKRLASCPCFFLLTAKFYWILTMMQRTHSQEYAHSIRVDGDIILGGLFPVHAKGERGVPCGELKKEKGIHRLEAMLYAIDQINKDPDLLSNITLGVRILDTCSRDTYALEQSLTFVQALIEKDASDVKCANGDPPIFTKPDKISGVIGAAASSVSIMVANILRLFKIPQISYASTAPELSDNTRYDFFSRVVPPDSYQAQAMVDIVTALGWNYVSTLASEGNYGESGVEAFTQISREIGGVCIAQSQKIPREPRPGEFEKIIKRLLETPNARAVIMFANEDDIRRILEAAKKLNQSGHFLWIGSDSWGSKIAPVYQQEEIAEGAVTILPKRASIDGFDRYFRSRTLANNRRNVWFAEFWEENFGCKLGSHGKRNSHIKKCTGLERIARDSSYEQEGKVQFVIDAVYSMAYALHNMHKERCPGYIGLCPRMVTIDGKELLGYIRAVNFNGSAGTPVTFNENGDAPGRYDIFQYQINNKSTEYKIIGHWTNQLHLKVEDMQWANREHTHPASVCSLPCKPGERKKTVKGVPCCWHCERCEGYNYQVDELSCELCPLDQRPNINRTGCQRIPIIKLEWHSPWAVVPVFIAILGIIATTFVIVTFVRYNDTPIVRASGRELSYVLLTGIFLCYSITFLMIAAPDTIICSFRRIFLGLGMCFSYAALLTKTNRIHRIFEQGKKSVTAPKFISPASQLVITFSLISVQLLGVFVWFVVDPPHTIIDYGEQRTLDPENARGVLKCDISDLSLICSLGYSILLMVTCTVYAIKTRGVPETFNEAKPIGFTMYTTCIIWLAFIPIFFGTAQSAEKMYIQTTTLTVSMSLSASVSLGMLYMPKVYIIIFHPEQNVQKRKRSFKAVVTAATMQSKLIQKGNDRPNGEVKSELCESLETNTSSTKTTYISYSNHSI
Experiment: mGluR8 Gi/Go-coupled signaling modulation – cell-based, rat, thallium flux, HTS, primary screen (AID 488969)
Conditions: HEK293 rat mGluR8, GIRK (G protein-gated inwardly rectifying potassium channel) thallium flux, FluoZin2; at 10 µM; stronger effect = higher value; submaximal glutamate (EC20) added with thallium

Row | Structure (SMILES) | z-score
1 | O=C(CN1CCC(NC(=O)c2ccco2)CC1)Nc1cccc2ccccc12 | 0.182
2 | CC(C1CC2CCC1C2)n1c(COc2ccccc2F)nnc1SCC(N)=O (centres undefined) | 0.186
3 | O=C(Nc1nnc(C2CC2)s1)c1cc2c(s1)CCCCCC2 | -0.103
4 | CCOc1ccc(NC(=O)c2cn(-c3ccc(OCC)cc3)c(=O)c3cc(OC)c(OC)cc23)cc1 | -0.251
5 | CCN(CC)S(=O)(=O)c1ccc(N2CCCC2)c(NS(=O)(=O)c2ccc(OC)cc2)c1 | -0.043
6 | CN(c1ccccc1)S(=O)(=O)c1ccc(NC(=O)c2ccc(-c3ccccc3)cc2)cc1 | -0.236
7 | Cc1c(Cl)c([N+](=O)[O-])nn1CCCC(=O)Nc1cc(Cl)ccc1Cl | -0.213
8 | Nc1cc(=O)[nH]c(SCC(=O)Nc2ccc(Cl)c(Cl)c2)n1 | -0.192
9 | Cc1occc1C(=O)n1cnc2ccccc21 | -0.288
10 | O=c1c2sc(-c3ccccc3)cc2nc2n1CCC2 | 0.165
11 | N#Cc1ccc(C2=NC(C(F)(F)F)(C(F)(F)F)c3c(n(Cc4ccco4)c(=O)[nH]c3=O)N2)cc1 | -0.765
12 | CCc1ccc2c(c1)cc(CN(C(=S)Nc1ccccc1Cl)C1CC1)c1nnnn12 | -0.276
13 | CSc1ccccc1NC(=O)COc1ccccc1Cl | -1.54
14 | CCOC(=O)c1cccc(NC(=O)COC)c1 | -0.441
15 | O=C(COC(=O)CCS(=O)(=O)c1ccc(Cl)cc1)NC1CCCCC1 | -0.199
16 | CCN(CC)C(=O)C1CCN(S(=O)(=O)c2ccc(C3CNC(=O)C3)cc2)CC1 (centres undefined) | -1.74
17 | COc1ccc(C2C3=C(Nc4ncnn42)c2ccccc2CCC3)cc1 (centres undefined) | -1.58
18 | O=C(Nc1ccccc1)Nc1ccccn1 | 0.139
19 | Cc1ccc(S(=O)(=O)CNC(=S)c2cccc(C)c2)cc1 | -0.13
20 | Cc1ccc(NC(=O)/C=C/c2ccc([N+](=O)[O-])s2)cc1 | -0.137
21 | COc1ccc(-n2c(SCC3CNC(=O)O3)nnc2-c2ccc(Cl)cc2)cc1 (centres undefined) | -0.724
22 | CCOC(=O)C1=C(C)NC(C)=C(C(=O)OCC)C1C(=O)OC1CCOC1=O (centres undefined) | 0.276
23 | Cc1ccc2[nH]c(=O)c(N3CCOCC3)c(-c3ccccc3)c2c1 | -0.165
24 | Cc1onc(-c2ccccc2)c1C(=O)NCc1ccc2c(c1)OCO2 | 0.0427
25 | CCN(CC)S(=O)(=O)c1ccc(OC)c(NC(=O)C(C)Oc2ccc3c(C)cc(=O)oc3c2)c1 (centres undefined) | -1.22
26 | COC(=O)c1ccc(OCC(=O)c2ccccc2OC)cc1 | -0.264
27 | CCOc1ccc(C(=O)NCC(C)C)cc1 | -0.567

Row | Structure (SMILES) | z-score
28 | COCCN1C(=O)c2oc3c(C)cc(C)cc3c(=O)c2C1c1cccc(O)c1 (centres undefined) | -0.573
29 | CCOCCCn1c(=NC(C)=O)c(C(=O)OCC)cc2c(=O)n3ccccc3nc21 | -0.647
30 | c1ccc(-n2ncc3c(NCc4cccnc4)ncnc32)cc1 | 0.127
31 | N#Cc1c2n(c3c(=O)n(Cc4ccccc4)cnc13)CCCC2 | -0.222
32 | CC(C)CNC(=S)NC1CC2CCC(C1)N2Cc1ccccc1 (centres undefined) | -0.0729
33 | CCOC(=O)C1=C(C)N(Cc2ccccc2)C(=O)NC1c1ccc(OC)cc1 (centres undefined) | 0.283
34 | O=C(C1CCC1)N1CCc2cc(S(=O)(=O)NCCN3CCN(c4ccccc4F)CC3)ccc21 | -0.259
35 | CN(CC(=O)O/N=C(\N)c1ccc([N+](=O)[O-])cc1)S(=O)(=O)c1ccc2ccccc2c1 | 0.397
36 | Fc1ccc(-c2nnc(CSc3nnc4ccccn34)o2)cc1 | -0.181
37 | C=CCn1c(=NC(=O)C2CCCCC2)sc2cc(NC(C)=O)ccc21 | -0.258
38 | CN1c2ccccc2C(O)=C(C(=S)Nc2ccc(F)c(Cl)c2)S1(=O)=O | 0.358
39 | CC(C)CCNC(=O)C1CCCN1C(=O)NC1CCCCC1 (centres undefined) | -0.0987
40 | O=[N+]([O-])c1cccc(/C=N\N=C2c3ccccc3-c3ccccc32)c1O | -0.652
41 | CC(=O)NCc1ccc(S(=O)(=O)N/N=C/c2ccccc2)cc1 | -0.233
42 | COc1ccc(CCN=CC2=C(O)CC(C)(C)CC2=O)cc1 | 0.179
43 | CCC(C)C(NC(=O)C(N)CC(C)C)C(=O)NC(CCC(=O)OCc1ccccc1)C(N)=O (stereo not drawn) (H-Leu-Ile-Glu(OBn)-NH2; configuration not given here) | -0.167
44 | CCOc1ccccc1C(=O)NCC(=O)OCc1c(C)noc1C | -0.312
45 | CC1CCN(c2ccc(/C=N/n3nnnc3N)cc2[N+](=O)[O-])CC1 | active: 3.58
46 | CCN(CC)C(=S)Nc1ccc(OC)cc1 | -0.164
47 | CCOc1cc(NC(=S)NCCCN2CCOCC2)c(OCC)cc1NC(=O)CC(C)C | -1.52
48 | O=C(COC(=O)/C=C/c1ccccc1[N+](=O)[O-])Nc1ccc(OC(F)F)cc1 | -0.243
49 | N#Cc1cnn2c1nc(N1CCCCC1)c1ccccc12 | -0.394
50 | COCc1cc(CN2CCCC2)c(O)c2ncccc12 | 0.156
51 | Cc1ccccc1N1C(=O)CC1(C#N)c1ccc(OCc2ccccc2)cc1 (centres undefined) | -0.029
52 | O=C(Nc1cc(S(=O)(=O)N2CCCCC2)ccc1O)c1ccccc1NS(=O)(=O)c1ccc(F)cc1 | -0.421
53 | Cc1cccc(NC(=O)CSc2nc(COc3ccccc3)nc3ccccc23)c1C | 0.379
54 | CC(C(=O)Nc1ccc2c(c1)OCO2)N(c1ccc(Cl)cc1)S(C)(=O)=O (centres undefined) | -0.536
